# Measured values taken from the supplement of paper PMC11876631.
# ± gives the standard deviation of the averaged measurements. Laboratory Escherichia coli strains with one amino-acid change in an essential protein, pooled on minimal glucose agar with carbenicillin or gentamicin at twice the control MIC (plus kanamycin and chloramphenicol for the plasmids), 48 h. Fold change of barcode share against drug-free plates; higher = less susceptible. Active = above 20 in both replicates (the paper's putatively resistant). '<' = one read or none on drug, '>' = one read or none on a drug-free plate. Shares are relative, so most strains fall below 1 when a few take over. Listed are strains with at least 15 reads on both drug-free plates, and hits; most hits rest on fewer reference reads. Replicate rank correlation about 0.5. Edits are read from barcodes.
# Biological target: Escherichia coli (laboratory strain)
# Assay: barcode share on antibiotic plates over drug-free plates; higher = less susceptible
# Settings: antibiotic: gentamicin; 2× MIC (MIC 0.45 µg/mL)
# Description: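 A pool of E. coli strains, each edited to carry one amino-acid change in an essential protein, was grown for 48 h on minimal glucose agar with or without antibiotic; strain barcodes were sequenced; mean of two replicates.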
row,Protein,fold change of barcode share
1,cysI L531P (protein) MSEKHPGPLVVEGKLTDAERMKHESNYLRGTIAEDLNDGLTGGFKGDNFLLIRFHGMYQQDDRDIRAERAEQKLEPRHAMLLRCRLPGGVITTKQWQAIDKFAGENTIYGSIRLTNRQTFQFHGILKKNVKPVHQMLHSVGLDALATANDMNRNVLCTSNPYESQLHAEAYEWAKKISEHLLPRTRAYAEIWLDQEKVATTDEEPILGQTYLPRKFKTTVVIPPQNDIDLHANDMNFVAIAENGKLVGFNLLVGGGLSIEHGNKKTYARTASEFGYLPLEHTLAVAEAVVTTQRDWGNRTDRKNAKTKYTLERVGVETFKAEVERRAGIKFEPIRPYEFTGRGDRIGWVKGIDDNWHLTLFIENGRILDYPARPLKTGLLEIAKIHKGDFRITANQNLIIAGVPESEKAKIEKIAKESGLMNAVTPQRENSMACVSFPTCPLAMAEAERFLPSFIDNIDNLMAKHGVSDEHIVMRVTGCPNGCGRAMLAEVGLVGKAPGRYNLHLGGNRIGTRIPRMYKENITEPEILASPDELIGRWAKEREAGEGFGDFTVRAGIIRPVLDPARDLWD,< 0.018
2,acpS V11A (protein) MAILGLGTDIAEIARIEAVIARSGDRLARRVLSDNEWAIWKTHHQPVRFLAKRFAVKEAAAKAFGTGIRNGLAFNQFEVFNDELGKPRLRLWGEALKLAEKLGVANMHVTLADERHYACATVIIES,0.0643 ± 0.084
3,der V320A (protein) MVPVVALVGRPNVGKSTLFNRLTRTRDALVADFPGLTRDRKYGRAEIEGREFICIDTGGIDGTEDGVETRMAEQSLLAIEEADVVLFMVDARAGLMPADEAIAKHLRSREKPTFLVANKTDGLDPDQAVVDFYSLGLGEIYPIAASHGRGVLSLLEHVLLPWMEDLAPQEEVDEDAEYWAQFEAEENGEEEEEDDFDPQSLPIKLAIVGRPNVGKSTLTNRILGEERVVVYDMPGTTRDSIYIPMERDGREYVLIDTAGVRKRGKITDAVEKFSVIKTLQAIEDANVVMLVIDAREGISDQDLSLLGFILNSGRSLVIVANKWDGLSQEVKEQVKETLDFRLGFIDFARVHFISALHGSGVGNLFESVREAYDSSTRRVGTSMLTRIMTMAVEDHQPPLVRGRRVKLKYAHAGGYNPPIVVIHGNQVKDLPDSYKRYLMNYFRKSLDVMGSPIRIQFKEGENPYANKRNTLTPTQMRKRKRLMKHIKKNK,0.00763 ± 0.004
4,der V320Q (protein) MVPVVALVGRPNVGKSTLFNRLTRTRDALVADFPGLTRDRKYGRAEIEGREFICIDTGGIDGTEDGVETRMAEQSLLAIEEADVVLFMVDARAGLMPADEAIAKHLRSREKPTFLVANKTDGLDPDQAVVDFYSLGLGEIYPIAASHGRGVLSLLEHVLLPWMEDLAPQEEVDEDAEYWAQFEAEENGEEEEEDDFDPQSLPIKLAIVGRPNVGKSTLTNRILGEERVVVYDMPGTTRDSIYIPMERDGREYVLIDTAGVRKRGKITDAVEKFSVIKTLQAIEDANVVMLVIDAREGISDQDLSLLGFILNSGRSLVIVQNKWDGLSQEVKEQVKETLDFRLGFIDFARVHFISALHGSGVGNLFESVREAYDSSTRRVGTSMLTRIMTMAVEDHQPPLVRGRRVKLKYAHAGGYNPPIVVIHGNQVKDLPDSYKRYLMNYFRKSLDVMGSPIRIQFKEGENPYANKRNTLTPTQMRKRKRLMKHIKKNK,0.00684 ± 0.0046
5,cysG V408A (protein) MDHLPIFCQLRDRDCLIVGGGDVAERKARLLLDAGARLTVNALAFIPQFTAWADAGMLTLVEGPFDESLLDTCWLAIAATDDDALNQRVSEAAEARRIFCNVVDAPKAASFIMPSIIDRSPLMVAVSSGGTSPVLARLLREKLESLLPLHLGQVAKYAGQLRGRVKQQFATMGERRRFWEKLFVNDRLAQSLANNDQKAITETTEQLINEPLDHRGEVVLVGAGPGDAGLLTLKGLQQIQQADVVVYDRLVSDDIMNLVRRDADRVFVGKRAGYHCVPQEEINQILLREAQKGKRVVRLKGGDPFIFGRGGEELETLCNAGIPFSVVPGITAASGCSAYSGIPLTHRDYAQSVRLITGHLKTGGELDWENLAAEKQTLVFYMGLNQAATIQQKLIEHGMPGEMPVAIAENGTAVTQRVIDGTLTQLGELAQQMNSPSLIIIGRVVGLRDKLNWFSNH,0.0129 ± 0.0097
6,cysE V88P (protein) MSCEELEIVWNNIKAEARTLADCEPMLASFYHATLLKHENLGSALSYMLANKLSSPIMPAIAIREVVEEAYAADPEMIASAACDIQAPRTRDPAVDKYSTPLLYLKGFHALQAYRIGHWLWNQGRRALAIFLQNQVSVTFQVDIHPAAKIGRGIMLDHATGIVVGETAVIENDVSILQSVTLGGTGKSGGDRHPKIREGVMIGAGAKILGNIEVGRGAKIGAGSVVLQPVPPHTTAAGVPARIVGKPDSDKPSMDMDQHFNGINHTFEYGDGI,< 0.0118
7,cysS L387A (protein) MLKIFNTLTRQKEEFKPIHAGEVGMYVCGITVYDLCHIGHGRTFVAFDVVARYLRFLGYKLKYVRNITDIDDKIIKRANENGESFVAMVDRMIAEMHKDFDALNILRPDMEPRATHHIAEIIELTEQLIAKGHAYVADNGDVMFDVPTDPTYGVLSRQDLDQLQAGARVDVVDDKRNPMDFVLWKMSKEGEPSWPSPWGAGRPGWHIECSAMNCKQLGNHFDIHGGGSDLMFPHHENEIAQSTCAHDGQYVNYWMHSGMVMVDREKMSKSLGNFFTVRDVLKYYDAETVRYFLMSGHYRSQLNYSEENLKQARAALERLYTALRGTDKTVAPAGGEAFEARFIEAMDDDFNTPEAYSVLFDMAREVNRLKAEDMAAANAMASHLRKASAVLGLLEQEPEAFLQSGAQADDSEVAEIEALIQQRLDARKAKDWAAADAARDRLNEMGIVLEDGPQGTTWRRK,< 0.00776
8,cysC L31W (protein) MALHDENVVWHSHPVTVQQRELHHGHRGVVWWFTGLSGSGKSTVAGALEEALHKLGVSTYLLDGDNVRHGLCSDLGFSDADRKENIRRVGEVANLMVEAGLVVLTAFISPHRAERQMVRERVGEGRFIEVFVDTPLAICEARDPKGLYKKARAGELRNFTGIDSVYEAPESAEIHLNGEQLVTNLVQQLLDLLRQNDIIRS,0.0876 ± 0.087
9,cysC F33Q (protein) MALHDENVVWHSHPVTVQQRELHHGHRGVVLWQTGLSGSGKSTVAGALEEALHKLGVSTYLLDGDNVRHGLCSDLGFSDADRKENIRRVGEVANLMVEAGLVVLTAFISPHRAERQMVRERVGEGRFIEVFVDTPLAICEARDPKGLYKKARAGELRNFTGIDSVYEAPESAEIHLNGEQLVTNLVQQLLDLLRQNDIIRS,0.0467 ± 0.031
10,cysC V103D (protein) MALHDENVVWHSHPVTVQQRELHHGHRGVVLWFTGLSGSGKSTVAGALEEALHKLGVSTYLLDGDNVRHGLCSDLGFSDADRKENIRRVGEVANLMVEAGLVDLTAFISPHRAERQMVRERVGEGRFIEVFVDTPLAICEARDPKGLYKKARAGELRNFTGIDSVYEAPESAEIHLNGEQLVTNLVQQLLDLLRQNDIIRS,< 0.016
11,cysC V102Q (protein) MALHDENVVWHSHPVTVQQRELHHGHRGVVLWFTGLSGSGKSTVAGALEEALHKLGVSTYLLDGDNVRHGLCSDLGFSDADRKENIRRVGEVANLMVEAGLQVLTAFISPHRAERQMVRERVGEGRFIEVFVDTPLAICEARDPKGLYKKARAGELRNFTGIDSVYEAPESAEIHLNGEQLVTNLVQQLLDLLRQNDIIRS,< 0.0167
12,cysC V103A (protein) MALHDENVVWHSHPVTVQQRELHHGHRGVVLWFTGLSGSGKSTVAGALEEALHKLGVSTYLLDGDNVRHGLCSDLGFSDADRKENIRRVGEVANLMVEAGLVALTAFISPHRAERQMVRERVGEGRFIEVFVDTPLAICEARDPKGLYKKARAGELRNFTGIDSVYEAPESAEIHLNGEQLVTNLVQQLLDLLRQNDIIRS,< 0.0146
13,dapA V40Q (protein) MFTGSIVAIVTPMDEKGNVCRASLKKLIDYHVASGTSAIQSVGTTGESATLNHDEHADVVMMTLDLADGRIPVIAGTGANATAEAISLTQRFNDSGIVGCLTVTPYYNRPSQEGLYQHFKAIAEHTDLPQILYNVPSRTGCDLLPETVGRLAKVKNIIGIKEATGNLTRVNQIKELVSDDFVLLSGDDASALDFMQLGGHGVISVTANVAARDMAQMCKLAAEGHFAEARVINQRLMPLHNKLFVEPNPIPVKWACKELGLVATDTLRLPMTPITDSGRETVRAALKHAGLL,0.0402 ± 0.042
14,cysD I268Q (protein) MDQIRLTHLRQLEAESIHIIREVAAEFSNPVMLYSIGKDSSVMLHLARKAFYPGTLPFPLLHVDTGWKFREMYEFRDRTAKAYGCELLVHKNPEGVAMGINPFVHGSAKHTDIMKTEGLKQALNKYGFDAAFGGARRDEEKSRAKERIYSFRDRFHRWDPKNQRPELWHNYNGQINKGESIRVFPLSNWTEQDIWQYIWLENIDIVPLYLAAERPVLERDGMLMMIDDNRIDLQPGEVIKKRMVRFRTLGCWPLTGAVESNAQTLPEQIEEMLVSTTSERQGRVIDRDQAGSMELKKRQGYF,> 55.8 [active]
15,cysD I269Q (protein) MDQIRLTHLRQLEAESIHIIREVAAEFSNPVMLYSIGKDSSVMLHLARKAFYPGTLPFPLLHVDTGWKFREMYEFRDRTAKAYGCELLVHKNPEGVAMGINPFVHGSAKHTDIMKTEGLKQALNKYGFDAAFGGARRDEEKSRAKERIYSFRDRFHRWDPKNQRPELWHNYNGQINKGESIRVFPLSNWTEQDIWQYIWLENIDIVPLYLAAERPVLERDGMLMMIDDNRIDLQPGEVIKKRMVRFRTLGCWPLTGAVESNAQTLPEIQEEMLVSTTSERQGRVIDRDQAGSMELKKRQGYF,1.24 ± 1.4
16,dapD I184W (protein) MQQLQNIIETAFERRAEITPANADTVTREAVNQVIALLDSGALRVAEKIDGQWVTHQWLKKAVLLSFRINDNQVIEGAESRYFDKVPMKFADYDEARFQKEGFRVVPPAAVRQGAFIARNTVLMPSYVNIGAYVDEGTMVDTWATVGSCAQIGKNVHLSGGVGIGGVLEPLQANPTIIEDNCFWGARSEVVEGVIVEEGSVISMGVYIGQSTRIYDRETGEIHYGRVPAGSVVVSGNLPSKDGKYSLYCAVIVKKVDAKTRGKVGINELLRTID,< 0.0137
